According to PubChem BioAssay AID588453 (National Center for Advancing Translational Sciences (NCATS), 2011):
Among all 390,000 compounds or so, about 4,000 (1%) were called active. Inconclusive results, whose numbers are uncertain, are shown with a selection of clear calls. Calls come from the whole dose curve; as a rule, active = well fitted inhibition curve with a large enough effect; inconclusive = small, poorly fitted or top-dose-only effect; inactive = no such curve, though single readings can be large or run the other way. Where the call is inconclusive, the potency comes from a doubtful curve fit.

Each compound was assayed against Thioredoxin reductase 1, cytoplasmic (Rattus norvegicus) (UniProt O89049) (assay: qHTS Assay for Inhibitors of Mammalian Selenoprotein Thioredoxin Reductase 1 (TrxR1): qHTS). Conditions: recombinant rTrxR1, NADPH fluorescence consumption, selenite substrate; series mostly up to 114 µM; activity change, negative = inhibition: at the top concentration.
Outline: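 Rat TrxR1 (90 nM in the dispensed reagent) was pre-reduced with 400 uM NADPH for 5 min at room temperature, then incubated with compound for 15 min. After 400 uM selenite was added, NADPH fluorescence (Ex 340/Em 450 nm) was followed for 8 min.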
% is set by controls: 0 for no effect and ±100 for the full control effect; potency is the fitted concentration of half-maximal effect; tags give direction and shape of the fitted curve.
Note: nearly all actives have a fitted effect of over 65% in size.

UniProt O89049, sequence (O89049 whole entry, looked up): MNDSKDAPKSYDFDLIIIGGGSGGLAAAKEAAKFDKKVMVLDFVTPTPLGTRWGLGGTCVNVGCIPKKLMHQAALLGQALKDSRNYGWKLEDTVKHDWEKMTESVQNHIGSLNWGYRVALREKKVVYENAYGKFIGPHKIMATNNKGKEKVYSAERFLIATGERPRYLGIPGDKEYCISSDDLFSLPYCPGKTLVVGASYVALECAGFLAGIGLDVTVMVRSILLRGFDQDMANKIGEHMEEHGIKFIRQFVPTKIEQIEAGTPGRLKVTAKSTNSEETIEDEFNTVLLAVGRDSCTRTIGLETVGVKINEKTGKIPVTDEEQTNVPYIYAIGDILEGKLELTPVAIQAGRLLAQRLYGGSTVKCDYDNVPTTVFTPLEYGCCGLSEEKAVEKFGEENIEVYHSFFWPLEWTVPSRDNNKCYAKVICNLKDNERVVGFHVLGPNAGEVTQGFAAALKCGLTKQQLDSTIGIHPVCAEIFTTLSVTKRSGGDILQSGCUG

| Compound | Potency | activity change, negative = inhibition |
| --- | --- | --- |
| S=C(NCCCN1CCOCC1)Nc1ccc(Nc2ccccc2)cc1 | inconclusive: 25.1 µM [inhibitor, single point] |  |
| CC(=O)c1c(NC(=O)c2ccccc2)[nH]c(-c2ccccc2)nc1=S | inconclusive: 1.12 µM [inhibitor, single point] |  |
| CC(C)c1ccc2c(c1)C1(NN=C(c3ccccc3)S1)C(=O)N2 (stereo not drawn) | inconclusive: 44.7 µM [inhibitor, partial curve, poor fit] |  |
| CCn1c(SCC(=O)c2ccc(Cl)cc2)nnc1C(C)C | inconclusive: 70.8 µM [inhibitor, single point] |  |
| Cc1ccc(-n2nnnc2C2CCN(S(=O)(=O)c3ccc(OC(F)(F)F)cc3)CC2)cc1 |  | inactive: 12.6% |
| CN(Cc1ccccc1)C(=O)CCn1c(=O)oc2ccccc21 | inconclusive: 22.4 µM [inhibitor, partial curve] |  |
| Cc1ccc(S(=O)(=O)c2cc3c(=O)n4ccccc4nc3n(C)c2=N)cc1C | inconclusive: 35.5 µM [inhibitor, full curve, poor fit] |  |
| CC1(C)CC(=O)c2cnc(N)nc2C1 |  | inactive: -12.2% |
| COc1ccccc1C(=O)NNC(=O)C(=O)Nc1ccc(C)c(Cl)c1 |  | inactive: 6.42% |
| CCOCCCN1CN(S(=O)(=O)c2ccc(Cl)cc2)c2nc3ccccc3nc21 | inconclusive: 79.4 µM [inhibitor, single point] |  |
| NCCN1CCN(S(=O)(=O)c2ccc([N+](=O)[O-])cc2)C=C1c1ccc(Cl)cc1 | inconclusive: 35.5 µM [inhibitor, partial curve] |  |
| COc1ccc(C(=O)NC(=S)Nc2ccccc2F)cc1 | inconclusive: 44.7 µM [inhibitor, partial curve] |  |
| Cc1ccc(N(CC(=O)NC2CCCCC2)S(=O)(=O)c2cccs2)cc1 | inconclusive: 70.8 µM [inhibitor, single point] |  |
| CCOc1ccc(Cn2c(O)cc(=O)[nH]c2=O)cc1 | inconclusive: 25.1 µM [inhibitor, partial curve, poor fit] |  |
| O=C1/C(=C\c2ccc(Br)o2)SC(=Nc2ccccc2)N1c1ccccc1 | inconclusive: 10 µM [inhibitor, full curve] |  |
| CC1(C)Cc2cccc(C(=O)NCc3ccco3)c2O1 | inconclusive: 50.1 µM [inhibitor, partial curve] |  |
| COc1ccc(NC(=O)CCn2nc(-c3ccccc3OC)c3c(C)cc(C)nc32)cc1 |  | inactive: 12.5% |
| CCn1cc(C2=NC(CCSC)CO2)c2ccccc21 (stereo not drawn) |  | inactive: 18.3% [at 57.1 µM] |
| COc1ccc(N2CC(C(=O)Nc3nnc(SCC(=O)NCc4ccco4)s3)CC2=O)cc1 (stereo not drawn) | inconclusive: 50.1 µM [inhibitor, single point] |  |
| O=c1cc(-c2ccccc2)n(S(=O)(=O)c2ccccc2)o1 | inconclusive: 20 µM [inhibitor, single point] |  |
| COc1ccc(C(=O)C2CCCN(Cc3nc4ccccc4nc3C)C2)cc1OC (stereo not drawn) | inconclusive: 89.1 µM [inhibitor, partial curve, poor fit] |  |
| Cc1cc(C)nc(SCC(=O)NC(=O)c2ccccc2O)n1 | active: 12.6 µM |  |
| CNc1ccc(C(O)(C(F)(F)F)C(F)(F)F)cc1C(O)(C(F)(F)F)C(F)(F)F | inconclusive: 14.1 µM [inhibitor, partial curve, poor fit] |  |

| Compound | Potency | activity change, negative = inhibition |
| --- | --- | --- |
| CC(C)(C)C(=O)Nc1ccccc1N1CCN(c2ccc(F)cc2)CC1 | inconclusive: 8.91 µM [inhibitor, single point] |  |
| NC(=O)C1CCN(C(=O)CNC(=O)c2ccc(Br)o2)CC1 | inconclusive: 100 µM [inhibitor, single point] |  |
| CC12CCC(C(=O)Nc3ncc([N+](=O)[O-])s3)(OC1=O)C2(C)C (stereo not drawn) |  | inactive: 16.3% [at 57.1 µM] |
| CC(C)NC(=S)NNc1ncnc2sc3c(c12)CC(C)(C)OC3 |  | inactive: 1.22% |
| COC(=O)c1ccc(NC(=O)CCc2nnc3ccc(NCc4ccco4)nn23)cc1 | inconclusive: 56.2 µM [inhibitor, partial curve, poor fit] |  |
| COC(=O)/C(=C\C(=O)c1ccccc1)Nc1cccc(C(F)(F)F)c1 | inconclusive: 22.4 µM [inhibitor, full curve, poor fit] |  |
| COc1ccccc1NC(=O)c1oc2ccccc2c1NC(=O)c1ccccc1C(F)(F)F |  | inactive: -10.4% |
| Cc1ccccc1-c1nc(S(=O)(=O)c2ccccc2)c(N2CCCC2)o1 | inconclusive: 6.31 µM [inhibitor, full curve, poor fit] |  |
| CC1Cc2ccccc2N1Cc1cc(=O)n2ccsc2n1 (stereo not drawn) | inconclusive: 70.8 µM [inhibitor, single point] |  |
| Cc1c(Cl)sn(-c2ccc(Cl)cc2)c1=O | active: 5.01 µM |  |
| Cc1ccc(O)c(N)c1 | inconclusive: 44.7 µM [inhibitor, partial curve, poor fit] |  |
| Cc1ccc(CN(C(=O)COc2ccc(C(C)C)cc2)C2CCS(=O)(=O)C2)o1 (stereo not drawn) | inconclusive: 31.6 µM [inhibitor, full curve] |  |
| O=C(NCC1(c2ccccc2)CCCC1)c1ccc(Br)o1 | inconclusive: 44.7 µM [inhibitor, partial curve] |  |
| O=[N+]([O-])c1cccc(-c2ccc(C(=S)N3CCN(c4ccc(F)cc4)CC3)o2)c1 | inconclusive: 63.1 µM [inhibitor, partial curve] |  |
| CCCSc1nc2c(c(=O)n(C)c(=O)n2C)n1Cc1ccc(C)cc1 | inconclusive: 2.24 µM [inhibitor, partial curve, poor fit] |  |
| COc1ccc(Cn2nnnc2CN2CCC(c3nc4ccccc4s3)CC2)cc1 | inconclusive: 39.8 µM [inhibitor, single point] |  |
| CCOC(=O)c1sc(=S)[nH]c1C | inconclusive: 0.891 µM [inhibitor, full curve] |  |
| Cc1ccc(C(c2c(C)[nH][nH]c2=O)c2c(C)[nH][nH]c2=O)cc1 |  | inactive: -21.6% [at 57.1 µM] |
| O=C(NNC(=O)c1cccc2ccccc12)c1ccc(Cl)cc1Cl |  | inactive: 14.4% [at 57.1 µM] |
| COc1ccc(/C=C/C(=O)NCc2cn(C)nc2C)cc1COc1ccc(Br)cc1 |  | inactive: 16.9% |
| C=C(CCO)C1=CCN(S(=O)C(C)(C)C)[C@H]1CCO (stereo partly drawn) | inconclusive: 22.4 µM [inhibitor, full curve, poor fit] |  |
| CCC(=O)NC(=S)Nc1cccc(-c2nc3ncccc3o2)c1 | inconclusive: 17.8 µM [inhibitor, partial curve] |  |
| N#Cc1nc(-c2ccccc2F)oc1NCCN1CCOCC1 | inconclusive: 17.8 µM [inhibitor, single point] |  |

| Compound | Potency | activity change, negative = inhibition |
| --- | --- | --- |
| O=S(=O)(c1ccccc1)N1CCN(Cc2c(O)ccc3ccccc23)CC1 | inconclusive: 4.47 µM [inhibitor, full curve] |  |
| COc1ccc(CN(CCC(c2ccccc2)c2ccc(OC(C)C)cc2)C(=O)CCl)cc1OC (stereo not drawn) | inconclusive: 56.2 µM [inhibitor, partial curve] |  |
| CCCN(C)CCCOc1cc2nc(N3CCCN(C)CC3)nc(NC3CCN(C)CC3)c2cc1OC |  | inactive: -24.5% |
| Cc1ccc(CN2CCNC(=O)C2CC(=O)N(C)Cc2cnccn2)cc1 (stereo not drawn) | inconclusive: 50.1 µM [inhibitor, partial curve, poor fit] |  |
| COn1c(-c2ccccc2)nc2c1CCc1nonc1-2 | inconclusive: 17.8 µM [inhibitor, partial curve] |  |
| Cc1sc2ccccc2[n+]1CCCC[n+]1c(C)sc2ccccc21 |  | inactive: 173% |
| O=C1NC2c3c(Cl)sc(Cl)c3C(=O)C2O1 (stereo not drawn) | active: 6.31 µM |  |
| COc1ccc2c(c1)-c1nc(NC(=O)c3ccccc3F)sc1CC2 |  | inactive: 44.7% |
| CCCCOc1ccc(C2OC34CCCCC3C(C#N)(C#N)C2(C#N)C(=N)O4)cc1 (stereo not drawn) | inconclusive: 50.1 µM [inhibitor, partial curve] |  |
| Cc1ccnc(N2C(=O)c3cccc4c([N+](=O)[O-])ccc(c34)C2=O)c1 | inconclusive: 17.8 µM [inhibitor, partial curve] |  |
| Cc1ccc(C(=O)NC(=S)Nc2ccc(CN3CCCCC3)cc2)c(C)c1 | inconclusive: 89.1 µM [inhibitor, single point] |  |
| CCc1ccc(NC(=O)CSc2nc(N)c(NC(=O)c3ccc(F)c(F)c3)c(=O)[nH]2)cc1 | inconclusive: 89.1 µM [inhibitor, single point] |  |
| O=C(Nc1ccc(F)cc1)c1nn(-c2ccccc2)c(=O)cc1Cl | inconclusive: 22.4 µM [inhibitor, partial curve] |  |
| CCc1ccc(CNc2ccc3c(c2)ncn3C)cc1 |  | inactive: 16.7% |
| COc1cc(OC)cc(-c2c(-c3cccs3)c3cc(-c4ccc5c(c4)OCCO5)ccc3n2C)c1 | inconclusive: 7.94 µM [inhibitor, full curve, poor fit] |  |
| O=C(NC1CCCCC1)c1c[nH]c2ccc(S(=O)(=O)Nc3ccccc3F)cc2c1=O |  | inactive: 4.52% |
| CCc1ccc(NC2CC(=O)N(c3ccc(OC)cc3OC)C2=O)cc1 (stereo not drawn) | inconclusive: 7.94 µM [inhibitor, partial curve, poor fit] |  |
| Cc1cccc(NC(=S)N/C(=N/S(=O)(=O)c2ccccc2)c2ccccc2)c1 | active: 15.8 µM |  |
| CCOC(=O)N1CCC(NC(=O)CS(=O)Cc2nc(-c3ccccc3C)oc2C)CC1 (stereo not drawn) | inconclusive: 56.2 µM [inhibitor, partial curve, poor fit] |  |
| CCCCCCC(C)n1[nH]c(=O)c2c(C)cc(=O)[nH]c21 (stereo not drawn) | inconclusive: 31.6 µM [inhibitor, single point] |  |
| COc1ccc(Cc2nnc(SCC(=O)c3cccc([N+](=O)[O-])c3)n2C)cc1 | active: 79.4 µM |  |
| NC(=O)Cn1c(=O)n(Cc2ccco2)c(=O)c2c3c(sc21)CCCCC3 | inconclusive: 28.2 µM [inhibitor, partial curve, poor fit] |  |
